Experimental data: the supplement of paper PMC4967469
The IC50 comes from the fitted curve, where viability falls to half of the control; fits outside the tested doses are given as limits. For AUC the same curve is integrated over the 256-fold range of doses and scaled to a fraction: 1 means no effect, lower means more sensitive. For some assays here: A top dose marked as inferred was derived from the fitted curves, not read from the paper. For some assays here: An entry number marks a drug with two screens in the source, which often give different values.

Tests used:
Experiment in all cases: Viability of human cancer cell lines after 72 h of drug (GDSC screen)
YM201636 = compound: Nc1ccc(C(=O)Nc2cccc(-c3nc(N4CCOCC4)c4oc5ncccc5c4n3)c2)cn1 [YM201636]; conditions: top dose 5.12 µM; top dose inferred
Protocol: (§1)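 Human cancer cell lines in 384-well plates, medium with 10% serum, drug for 72 h over a 256-fold dose range (nine 2-fold or five 4-fold steps up to the top dose). Adherent lines were fixed and stained with the nucleic acid dye Syto60, suspension lines read with resazurin; signal relative to control wells, capped at 0 and 100%. One two-parameter sigmoid per drug and line, fitted in a mixed model over all curves with the slope shared within a line.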

EX-527 = compound: NC(=O)C1CCCc2c1[nH]c1ccc(Cl)cc21 [EX-527]; conditions: top dose 20 µM
Protocol: as §1

AZD6244 = compound: Cn1cnc2c(F)c(Nc3ccc(Br)cc3Cl)c(C(=O)NOCCO)cc21 [AZD6244]; conditions: top dose 4 µM; screen: GDSC drug entry 1498; top dose inferred
Protocol: as §1

AZ628 = compound: Cc1ccc(NC(=O)c2cccc(C(C)(C)C#N)c2)cc1Nc1ccc2ncn(C)c(=O)c2c1 [AZ628]; conditions: top dose 4 µM; top dose inferred
Protocol: as §1

AS601245 = compound: N#CC(c1ccnc(NCCc2cccnc2)n1)c1nc2ccccc2s1 [AS601245]; conditions: top dose 8 µM; top dose inferred
Protocol: as §1

Cell Line | AUC (YM201636) | IC50 (YM201636) [µM] | AUC (EX-527) | IC50 (EX-527) [µM] | AUC (AZD6244) | IC50 (AZD6244) [µM] | AUC (AZ628) | IC50 (AZ628) [µM] | AUC (AS601245) | IC50 (AS601245) [µM]
LB2518-MEL (melanoma, adherent) | 0.951 | > 5.12 | 0.977 | > 20 | 0.344 | 0.09 | 0.116 | < 0.0156 | 0.851 | 6.61
LC4-1 (lymphoblastic leukaemia, suspension) | 0.718 | 1.43 | 0.954 | > 20 | 0.949 | > 4 | 0.943 | > 4 | 0.8 | 4.34
LC-2-ad (lung adenocarcinoma, adherent) | 0.891 | > 5.12 | 0.979 | > 20 | 0.936 | > 4 | 0.833 | 2.68 | 0.802 | 4.07
LOUCY (T-cell lymphoblastic leukaemia, suspension) | 0.771 | 1.61 | 0.992 | > 20 | 0.948 | > 4 | 0.981 | > 4 | 0.86 | 4.81
LOXIMVI (melanoma, semi-adherent) | 0.962 | > 5.12 | 0.984 | > 20 | 0.465 | 0.202 | 0.906 | > 4 | 0.855 | 5.33
LP-1 (myeloma, suspension) | 0.841 | 2.72 | 0.987 | > 20 | 0.993 | > 4 | 0.968 | > 4 | 0.852 | 4.61
LS-123 (large intestine, adherent) | 0.956 | > 5.12 | 0.974 | > 20 | 0.735 | 1.49 | 0.887 | > 4 | 0.817 | 6.53
LS-411N (large intestine, adherent) | 0.858 | > 5.12 | 0.971 | > 20 | 0.577 | 0.426 | 0.401 | 0.126 | 0.856 | > 8
LS-513 (large intestine, adherent) | 0.819 | 3.07 | 0.987 | > 20 | 0.71 | 1.01 | 0.871 | > 4 | 0.958 | > 8
LS-1034 (large intestine, adherent) | 0.855 | 4.75 | 0.981 | > 20 | 0.679 | 0.835 | 0.936 | > 4 | 0.858 | 7.71
LU-134-A (small cell lung carcinoma, suspension) | 0.925 | > 5.12 | 0.984 | > 20 | 0.985 | > 4 | 0.984 | > 4 | 0.907 | > 8
LU-139 (small cell lung carcinoma, suspension) | 0.847 | > 5.12 | 0.976 | > 20 | 0.978 | > 4 | 0.949 | > 4 | 0.96 | > 8
LU-165 (small cell lung carcinoma, suspension) | 0.753 | 1.89 | 0.984 | > 20 | 0.984 | > 4 | 0.967 | > 4 | 0.946 | > 8
LXF-289 (lung adenocarcinoma, adherent) | 0.959 | > 5.12 | 0.983 | > 20 | 0.86 | 3.27 | 0.943 | > 4 | 0.9 | > 8
MC116 (B-cell lymphoma, suspension) | 0.839 | 2.11 | 0.999 | > 20 | 0.998 | > 4 | 0.996 | > 4 | 0.797 | 2.6
MC-CAR (haematopoietic neoplasm, suspension) | 0.795 | 2.1 | 0.989 | > 20 | 0.98 | > 4 | 0.945 | > 4 | 0.83 | 4.3
MDST8 (large intestine, adherent) | 0.932 | > 5.12 | 0.978 | > 20 | 0.281 | 0.0603 | 0.811 | 2.1 | 0.956 | > 8
ME-1 (acute myeloid leukaemia, suspension) | 0.917 | > 5.12 | 0.989 | > 20 | 0.877 | > 4 | 0.661 | 0.724 | 0.982 | > 8
MEG-01 (chronic myeloid leukaemia, suspension) | 0.948 | > 5.12 | 0.977 | > 20 | 0.746 | 1.21 | 0.548 | 0.335 | 0.888 | > 8
MFH-ino (soft tissue, adherent) | 0.962 | > 5.12 | 0.975 | > 20 | 0.713 | 1.12 | 0.83 | 3.14 | 0.833 | 6.48
MFM-223 (breast, adherent) | 0.982 | > 5.12 | 0.981 | > 20 | 0.969 | > 4 | 0.989 | > 4 | 0.982 | > 8
MHH-PREB-1 (B-cell leukaemia, suspension) | 0.59 | 0.548 | 0.98 | > 20 | 0.963 | > 4 | 0.954 | > 4 | 0.845 | 4.91
ML-2 (acute myeloid leukaemia, suspension) | 0.745 | 1.46 | 0.99 | > 20 | 0.588 | 0.422 | 0.571 | 0.382 | 0.889 | 7.39
MLMA (hairy cell leukaemia, semi-adherent) | 0.671 | 0.962 | 0.979 | > 20 | 0.961 | > 4 | 0.922 | > 4 | 0.902 | > 8
MMAC-SF (melanoma, adherent) | 0.987 | > 5.12 | 0.987 | > 20 | 0.223 | 0.0372 | 0.309 | 0.0711 | 0.907 | > 8

Cell Line | AUC (YM201636) | IC50 (YM201636) [µM] | AUC (EX-527) | IC50 (EX-527) [µM] | AUC (AZD6244) | IC50 (AZD6244) [µM] | AUC (AZ628) | IC50 (AZ628) [µM] | AUC (AS601245) | IC50 (AS601245) [µM]
MN-60 (B-cell leukaemia, suspension) | 0.904 | > 5.12 | 0.974 | > 20 | 0.987 | > 4 | 0.986 | > 4 | 0.944 | > 8
MOLM-13 (acute myeloid leukaemia, suspension) | 0.809 | 2.47 | 0.98 | > 20 | 0.889 | > 4 | 0.688 | 0.807 | 0.81 | 3.9
MOLP-8 (myeloma, suspension) | 0.875 | 4.7 | 0.979 | > 20 | 0.853 | 2.93 | 0.658 | 0.672 | 0.837 | 5.05
MOLT-4 (lymphoblastic leukaemia, suspension) | 0.859 | 3.04 | 0.991 | > 20 | 0.966 | > 4 | 0.935 | > 4 | 0.92 | > 8
MONO-MAC-6 (acute myeloid leukaemia, suspension) | 0.819 | 3.13 | 0.937 | > 20 | 0.923 | > 4 | 0.906 | > 4 | 0.834 | 5.66
MPP-89 (mesothelioma, adherent) | 0.942 | > 5.12 | 0.981 | > 20 | 0.932 | > 4 | 0.78 | 2.2 | 0.796 | 5.1
MRK-nu-1 (breast, suspension) | 0.851 | 3.43 | 0.99 | > 20 | 0.976 | > 4 | 0.945 | > 4 | 0.874 | 6.72
MS-1 (small cell lung carcinoma, suspension) | 0.887 | 4.67 | 0.991 | > 20 | 0.99 | > 4 | 0.975 | > 4 | 0.942 | > 8
MV-4-11 (leukaemia, suspension) | 0.964 | > 5.12 | 0.984 | > 20 | 0.776 | 1.31 | 0.79 | 1.45 | 0.652 | 1.21
MZ1-PC (pancreas, adherent) | 0.861 | > 5.12 | 0.98 | > 20 | 0.726 | 1.3 | 0.497 | 0.245 | 0.796 | 4.83
MZ2-MEL (melanoma, adherent) | 0.762 | 2.13 | 0.977 | > 20 | 0.815 | 2.7 | 0.617 | 0.555 | 0.839 | 6.88
MZ7-mel (melanoma, adherent) | 0.833 | 3.48 | 0.978 | > 20 | 0.392 | 0.125 | 0.43 | 0.16 | 0.874 | > 8
Mo-T (hairy cell leukaemia, suspension) | 0.823 | 3.11 | 0.98 | > 20 | 0.95 | > 4 | 0.988 | > 4 | 0.929 | > 8
NALM-6 (B-cell leukaemia, suspension) | 0.596 | 0.559 | 0.989 | > 20 | 0.978 | > 4 | 0.963 | > 4 | 0.772 | 2.6
NAMALWA (Burkitt lymphoma, suspension) | 0.82 | 2.35 | 0.991 | > 20 | 0.984 | > 4 | 0.936 | > 4 | 0.944 | > 8
NB1 (neuroblastoma, semi-adherent) | 0.89 | > 5.12 | 0.97 | > 20 | 0.924 | > 4 | 0.892 | > 4 | 0.863 | > 8
NB5 (neuroblastoma, adherent) | 0.801 | 2.53 | 0.982 | > 20 | 0.759 | 1.41 | 0.765 | 1.48 | 0.929 | > 8
NB6 (neuroblastoma, adherent) | 0.899 | > 5.12 | 0.984 | > 20 | 0.939 | > 4 | 0.984 | > 4 | 0.975 | > 8
NB7 (neuroblastoma, adherent) | 0.862 | 4.7 | 0.982 | > 20 | 0.907 | > 4 | 0.94 | > 4 | 0.826 | 5.14
NB10 (neuroblastoma, adherent) | 0.923 | > 5.12 | 0.984 | > 20 | 0.777 | 1.57 | 0.911 | > 4 | 0.919 | > 8
NB12 (neuroblastoma, adherent) | 0.932 | > 5.12 | 0.963 | > 20 | 0.504 | 0.257 | 0.97 | > 4 | 0.96 | > 8
NB13 (neuroblastoma, adherent) | 0.824 | 2.6 | 0.99 | > 20 | 0.979 | > 4 | 0.99 | > 4 | 0.873 | 6.24
NB14 (neuroblastoma, adherent) | 0.847 | 3.44 | 0.987 | > 20 | 0.982 | > 4 | 0.618 | 0.517 | 0.894 | > 8
NB(TU)1-10 (neuroblastoma, adherent) | 0.84 | 2.86 | 0.993 | > 20 | 0.993 | > 4 | 0.498 | 0.247 | 0.905 | > 8
NB-4 (acute myeloid leukaemia, suspension) | 0.792 | 1.87 | 0.984 | > 20 | 0.281 | 0.0687 | 0.246 | 0.0553 | 0.866 | 5.06
